Assay results published in a collection of fitness landscapes (doi:10.1016/j.celrep.2020.107928).
In all, about 81,000 sequences were measured (“one-hybrid fitness for binding NBS DNA”: median about -0.1, highest 2% from about 0.36 on). The list shows a part of the results.

B1: Caulobacter ParB omega fusion; a variant is named by its letters at X, in order, B8GW30 (parent)
chain: MESVVVGEPGMSEGRRGLGRGLSALLGEVDAAPAQAPGEQLGGSREAPIEILQRNPDQPRRTFREEDLEDLSNSIREKGVLQPILVRPSPDTAGEYQIVAGERAWRAAQRAGLKTVPIMVRELDDLAVLEIGIIENVQRADLNVLEEALSYKVLMEKFERTQENIAQTIGKSXSHVANXMRLLXLPDEVQSYLVSGELTAXHARAIAAAADPVALAKQIIEGGLSVRETEALARKAPNLSAGKSKGGRPPRVKDTDTQALESDLSSVLGLDVSIDHRGSTGTLTITYATLEQLDDLCNRLTRGI

Variants of: B1
Experiment: one-hybrid fitness for binding NBS DNA (the Noc-binding site; scaled: cognate 1, non-cognate 0); higher = stronger binding
Settings: with NBS DNA site
Outline: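 The reporter was HIS3, with the binding site 19 bp from the promoter, in E. coli USO used for bacterial one-hybrid selection of Caulobacter ParB libraries with four specificity codons randomised. Growth was on M9 lacking histidine, with 0.1 mM IPTG and 5 mM 3-AT, for 48 hours at 37°C. Illumina sequencing covered plasmids before and after selection; three replicate libraries were pooled and variants with under 10 reads dropped. A fitness score is the log change in variant-to-wild-type read ratio, rescaled to the cognate and non-cognate references.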

one-hybrid fitness for binding NBS DNA, 0.476:
RQHR

one-hybrid fitness for binding NBS DNA, ≤ 0.2:
KAMC
RPAE
DRPT
EEYA
GNTK
VNAL
HPNN
IRTQ
LHVN
CCYS
YRQS
TQVP
EPNC
YGQG
TVHC
WGLF
NTEY
RGFD
SIMG
RSQL
TNEG
RCEL
MRPK
AGII
TRSF
FTHT
TVNC
PCPP
ALYM
AGFS
SLGM
DEMR
GNQG
GRIF
PTGI
YHIF
FWMR
SFLY
SYWS
QLGF
RDNG
IQFG
NPKE
YWIC
MQQW
PCLY
FSMP
SFSC
PTKL
FAIR
PTWC
TAVC
RIHV
HQRY
AHDS
RIQV
EIVR
LYEW
QYIC
DQIS
DPKN
TPAH
PLYV
DISM
PHKC
RAPI
KLRH
PQAS
PSCR
NESG
RHRP
RPKW
HCMR
GPST
REMW
HGMA
ETRG
NNAN
FLGY
PCIG
QQVN
NKPM
HHQC
